Measurements: PubChem BioAssay AID1508624 (National Center for Advancing Translational Sciences (NCATS), 2021)
The whole screen tested about 48,000 compounds, of which about 120 (0.25%) were called active. Roughly 4% stayed inconclusive and do not appear here. Calls come from the whole dose curve; as a rule, active = well fitted activation curve with a large enough effect; inconclusive = small, poorly fitted or top-dose-only effect, or another doubt; inactive = no such curve, though single readings can be large or run the other way. The list shows a part of the results.

assay: Primary qHTS for Identification of Small Molecule Activators of Huntingtin-Antisense Promoter Activity; conditions: HEK293 HTT-AS promoter firefly luciferase reporter, 24 h; series mostly up to 57.5 µM; activity change, positive = activation: at the top concentration; note: nearly all actives have a fitted effect of over 55% in size
In short: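 HEK293 luciferase promoter-reporter cells (2,500/well) plated 24 h, then compounds added at up to 57.5 uM final for 24 h at 37 °C. Firefly luminescence by Dual-Glo, normalized to vehicle (0%) and zero RLU (-100%).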

Activity change, positive = activation, inactive:
O=c1oc2c(CN3CCN(CCO)CC3)c(O)ccc2cc1-c1ccccc1 -9.83%
COc1cccc(NC(=O)CC2NCCNC2=O)c1 (stereo unspecified) -1.17%
COc1ccc(C(=O)NCC(c2ccc(N(C)C)cc2)N2CCc3ccccc32)c(OC)c1 (stereo unspecified) -21.3%
COc1ccc(S(=O)(=O)NCC(c2ccco2)N2CCOCC2)cc1OC (stereo unspecified) -16.4%
Cc1ccc(NC(=O)CCc2c(C)nc3cc(-c4ccccc4)nn3c2C)cc1F -70.9%
COc1ccc(-c2nc3c(C#N)c[nH]n3c2NC2CCCC2)c(OC)c1 0%
Cc1ccc(NC(=O)c2sc3nc4c(cc3c2N)CN(Cc2ccccc2)CC4)cc1 2.5%
CCN1C(=O)c2ccccc2Sc2ccc(NC(=O)c3ccc(Cl)cc3)cc21 -5.09%
Cc1oc2ncn(C)c(=O)c2c1C(=O)N1CCN(c2ccccc2F)CC1 -11.6%
CCc1nn(Cc2ccc(Cl)cc2)c(=O)c2cc3cc(C)ccc3n12 -6.8%
Cc1cccc(NS(=O)(=O)c2ccc3c(c2)C(C)(C)C(=O)N3C)c1 -12.2%
CCOc1ccc(CN2CCc3nc(Nc4ccc(OC)cc4OC)ncc3C2)cc1 -2.85%
O=C(NCCCN1CCN(c2ccc(F)cc2)CC1)c1ccc2nc(Cc3ccccc3)oc2c1 -41.6%
COc1ccc2c(c1)c1c(c(=O)n(CCc3ccccc3)c(=O)n1Cc1ccc(F)cc1)n2C -19%
Cc1ccccc1Cn1c(CN2CCC(C(=O)NCCc3ccccc3)CC2)cc2ccccc21 -21.1%
CCN(CC)CCCNC(=O)c1nn(C)c2c1CS(=O)(=O)c1ccccc1-2 -8.92%
CCC(=O)Nc1cccc(C(=O)OCc2cc(=O)n3nc(CC)sc3n2)c1 11.7%
COc1ccc2c(c1)c1c(c(=O)n(-c3ccc(F)c(Cl)c3)c(=O)n1Cc1ccccc1C)n2C -15.1%
COc1ccc(NC(=O)c2c(-c3ccc(C)cc3)nnc3ccccc23)c(OC)c1 -10.5%
CCN(CC)c1nc2ccccc2nc1C(=O)Nc1cccc(C(C)=O)c1 -25.4%
O=[N+]([O-])c1ccc(/C=N\O)o1 -4.66%
S=C(NCc1ccc2c(c1)OCO2)N1CCN(c2ncnc3c2oc2ccccc23)CC1 -16.3% [at 116 µM, percent change from vehicle, -100% = no light]
CCSC1=NC2(CCN(C(=O)NC3CCCCC3)CC2)N=C1c1ccc(Cl)cc1 -4.15% [at 11.5 µM, percent change from vehicle, -100% = no light]
COc1ccc(Cl)cc1-n1nnc(-c2nsc(NC(=O)c3ccccc3Cl)n2)c1C -5.03%
CCCSc1nc2sc3c(c2c(=O)n1Cc1ccccc1)CC(C)(CC)OC3 (stereo unspecified) -12.7%
Cc1ccc(NC(=O)C2CCC(CNS(=O)(=O)c3csc(C(N)=O)c3)CC2)cc1Cl (stereo unspecified) -6.54%
